Laboratory results as given in PMC4336329 (PLoS ONE, 2015).
About 14,000 (4.5%) of roughly 310,000 compounds showed an effect of 50% or more. Effects have a minus sign here. The list shows a part of the results.

molecular target: human ether-à-go-go-related gene (hERG) potassium channel (human, UniProt Q12809); assay: primary screen, population patch clamp on CHO cells stably expressing hERG
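Also: peak tail current of the secondary pulse compared with the same well before compound.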

Sequence of human ether-à-go-go-related gene (hERG) potassium channel (Q12809 whole entry, looked up): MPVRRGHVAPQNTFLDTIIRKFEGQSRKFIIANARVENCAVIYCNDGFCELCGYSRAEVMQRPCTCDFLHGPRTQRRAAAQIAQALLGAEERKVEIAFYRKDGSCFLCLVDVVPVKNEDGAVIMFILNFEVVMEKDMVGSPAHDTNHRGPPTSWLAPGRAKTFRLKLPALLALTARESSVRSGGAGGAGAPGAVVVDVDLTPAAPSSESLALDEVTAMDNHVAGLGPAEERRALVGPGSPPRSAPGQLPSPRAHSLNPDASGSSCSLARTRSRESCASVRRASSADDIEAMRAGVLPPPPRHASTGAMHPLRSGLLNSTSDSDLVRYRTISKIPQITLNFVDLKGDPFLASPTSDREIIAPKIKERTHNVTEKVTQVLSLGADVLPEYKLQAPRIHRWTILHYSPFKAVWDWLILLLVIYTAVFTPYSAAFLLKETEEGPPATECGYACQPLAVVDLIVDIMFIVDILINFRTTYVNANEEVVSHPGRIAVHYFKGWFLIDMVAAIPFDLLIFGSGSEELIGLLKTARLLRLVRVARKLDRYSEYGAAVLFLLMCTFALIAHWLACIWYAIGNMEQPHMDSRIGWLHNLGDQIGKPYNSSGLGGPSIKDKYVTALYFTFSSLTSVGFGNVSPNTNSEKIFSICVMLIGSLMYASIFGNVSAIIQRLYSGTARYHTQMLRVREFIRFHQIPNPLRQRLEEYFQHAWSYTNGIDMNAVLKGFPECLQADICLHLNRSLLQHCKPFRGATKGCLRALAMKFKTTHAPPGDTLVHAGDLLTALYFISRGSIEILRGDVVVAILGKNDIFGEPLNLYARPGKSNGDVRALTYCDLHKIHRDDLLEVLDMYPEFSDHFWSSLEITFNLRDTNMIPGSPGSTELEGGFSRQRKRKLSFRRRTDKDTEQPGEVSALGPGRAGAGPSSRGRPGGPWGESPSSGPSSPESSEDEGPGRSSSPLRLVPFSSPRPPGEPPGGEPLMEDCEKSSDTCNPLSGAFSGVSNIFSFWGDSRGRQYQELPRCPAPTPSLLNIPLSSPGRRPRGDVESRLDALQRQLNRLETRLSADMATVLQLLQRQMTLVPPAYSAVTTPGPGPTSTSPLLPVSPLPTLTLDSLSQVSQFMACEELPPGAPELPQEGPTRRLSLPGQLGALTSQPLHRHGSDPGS

Row | Structure (SMILES) | hERG current change (%, negative = inhibition) at 10uM
1 | NS(=O)(=O)c1ccc(NC(=O)C(Sc2ccccc2)c2ccccc2)cc1 (centres unmarked) | 17.1%
2 | COc1ccc(CNS(=O)(=O)c2c(C(=O)N3CCCCC3)c(C)n(C)c2C)cc1 | -0.36%
3 | COC(=O)c1ccc(N2CCN(C)CC2)c(NC(=O)c2ccc(Br)o2)c1 | -55.8%
4 | COCCNC(=S)N=Nc1c(O)[nH]c2c(C)cc(C)cc12 | 10.1%
5 | CC(c1ccccc1)N1CC(C(=O)Nc2nccs2)CC1=O (centres unmarked) | 16.6%
6 | CCC(Sc1nc2ccccc2[nH]1)C(=O)Nc1ccc(NC(C)=O)cc1 (centres unmarked) | -7.2%
7 | Cc1ccc2nc(NCc3ccccc3)c(C=O)c(=O)n2c1 | 10.7%
8 | Cc1ccccc1C(=O)N1CCC(C(=O)Nc2ccc(S(=O)(=O)N(C)C(C)C)cc2)CC1 | -38.4%
9 | O=C(Nc1cccc(Cl)c1)N1CCc2ccccc2C1 | -10.3%
10 | COc1ccc(NC(=O)NCCCCc2ccccc2)cc1OC | 6.28%
11 | CC1=CC2=NC(=O)/C(=C\c3cc(C)n(-c4ccc(F)cc4)c3C)C(=N)N2O1 | 12.5%
12 | O=C(NCCc1ccncc1)c1ccc2nc(Cc3cccc(Cl)c3)oc2c1 | -39.1%
13 | Cc1cc(/C=N/n2cnnc2)c(C)n1-c1ccc(OCc2ccc(Cl)cc2)cc1 | -5.72%
14 | CSC1=NC(C(Cl)(Cl)Cl)N=C(c2ccc(C)cc2)N1.Cl (centres unmarked) | -13%
15 | O=C(Nc1ncn[nH]1)c1ccccc1O | 4.42%
16 | COc1ccc(-c2nnc(NC(=O)c3ccco3)s2)cc1 | 25%
17 | COc1ccc(C(=O)Nc2cnc3ccccn3c2=O)cc1 | 27.7%
18 | Cc1ccc(C(=O)NCCCN2CCN(CCCNC(=O)c3ccc(C)cc3)CC2)cc1 | -67.5%
19 | O=C1NC(=O)c2cc(NC(=O)c3cccc4ccccc34)ccc21 | 7.86%
20 | CCn1c(/C=C2\C(=O)N(C)c3ccccc32)nc2ccccc2c1=O | 9.49%
21 | O=[N+]([O-])c1cccc(-c2nc3ccccc3s/c2=N/O)c1 | 8.61%
22 | N#Cc1nc(Cc2ccccc2)oc1N1CCC(Cc2ccccc2)CC1 | 24.5%
23 | COc1ccc(N2CCN(C(=O)CCN3C(=O)c4ccccc4S3(=O)=O)CC2)cc1.Cl | -22.1%

Row | Structure (SMILES) | hERG current change (%, negative = inhibition) at 10uM
24 | O=C(NCc1ccco1)c1ccc(CNc2c(N3CCCCC3)c(=O)c2=O)cc1 | 1.66%
25 | O=C(O)C/C=C(/NC(=O)OCc1ccccc1)C(=O)OCc1ccccc1 | -3.13%
26 | Cc1ccc(S(=O)(=O)CCC(=O)OCC(=O)NNC(=O)c2ccc([N+](=O)[O-])cc2)cc1 | -13.5%
27 | O=C(CN1CCc2ccccc2C1)Nc1ccccc1N1CCCCCC1.O=C(O)C(=O)O | -5.79%
28 | CCc1ccc(C(=O)C(C)OC(=O)CNS(=O)(=O)c2ccc(C)cc2)cc1 (centres unmarked) | -11%
29 | Cc1ccc(-c2c(C#N)c(N)nc3c2CCCC3)o1 | 5.75%
30 | CCOC(=O)C(C)Sc1nnc(CSc2nc3nc(C)cc(C)n3n2)o1 (centres unmarked) | 9.3%
31 | C=CCONC(=O)c1cc(OCC(F)(F)F)ccc1OCC(F)(F)F | -22.2%
32 | O=C(c1ccc2c(=O)n(-c3ccccc3)c(=O)[nH]c2c1)N1CCCCC1 | 4.98%
33 | CC(=O)c1ccc(N(CC(=O)NC2CCCC2)C(=O)CNC(=O)c2ccco2)cc1 | 4.47%
34 | CCOC(=O)c1sc(N)c(C(=O)Nc2ccccc2)c1C | -11.3%
35 | CCCn1c(C2CCCN2c2nc(C)cs2)nc2cc(Cl)c(Cl)cc21 (centres unmarked) | -46.9%
36 | Cc1cc(SCC(=O)O)nc2ccccc12 | 26.8%
37 | CCc1ccc(N2C(=O)CN(Cc3cccs3)C2=S)cc1 | 23.4%
38 | CCC1=NC(c2ccc(Br)cc2)N(O)C1(C)C (centres unmarked) | 6.08%
39 | CCOC(=O)N1CCN(S(=O)(=O)N2CCCC(C(=O)NCc3ccc(F)cc3)C2)CC1 (centres unmarked) | -12.5%
40 | COc1ccc(CCC(=O)NCCS(=O)(=O)N2CCN(c3ccc(OC)cc3)CC2)cc1 | 7.57%
41 | O=C(/C=C/c1ccc(Cl)cc1)NCCCn1ccnc1 | -55.8%
42 | Cc1ccc(N2CCN(CCc3ccccc3)CC2)cc1 | -36.2%
43 | CCNC(=S)N/N=C/c1ccc(F)cc1 | 15.9%
44 | COC(=O)c1sc(NC(=O)c2cc3c(s2)CCCC3)nc1C | -3.83%
45 | N#CCC(=O)NNC(=S)Nc1ccccc1C(F)(F)F | 13.7%
46 | O=C(c1ccc(N2CCOCC2)cc1)c1cccs1 | -13.7%

Row | Structure (SMILES) | hERG current change (%, negative = inhibition) at 10uM
47 | CCOC(=O)c1cc(C(=O)c2cc(Br)ccc2O)coc1=N | -5.89%
48 | Cc1ccc(S(=O)(=O)N(C)CCCC(=O)N2CCOCC2)cc1 | 2.06%
49 | COc1ccc(C(=O)N/C(=C\c2cn(C)c3ccccc23)C(=O)NCCCN2CCOCC2)cc1 | 4.94%
50 | Cc1ccc(S(=O)(=O)N2CN3CCN(C3)C2)cc1 | -9.42%
51 | CC(C(=O)NCCN1CCOCC1)(c1ccccc1)c1ccccc1.Cl | -11%
52 | CN(C)S(=O)(=O)c1cccc(NC(=O)c2ccccc2OCc2ccc(F)cc2)c1 | 2.25%
53 | COc1ccc(/C=C2/SC(=S)N(CCCC(=O)Nc3cccc(O)c3)C2=O)cc1 | 9.11%
54 | O=C(CN(C(=O)c1csnn1)c1cccc(Cl)c1)NCCc1ccccc1 | 5.56%
55 | COc1cccc(CN(C)C(=O)CN2C(=O)NC(c3ccccc3)(c3ccccc3)C2=O)c1OC | -8.44%
56 | C[C@H](Nc1ccc(C(F)(F)F)cc1[N+](=O)[O-])C(=O)O.[Cl-] | -1.93%
57 | Cc1ccccc1S(=O)(=O)Cc1ccc(C(=O)NCc2cccs2)o1 | -21.7%
58 | Cc1ccc(S(=O)(=O)N2CCCCC2)cc1C(=O)N1CCN(c2ccccn2)CC1 | -17.3%
59 | O=C(NCc1ccccn1)c1ccc2c(=O)n3nc(Nc4ccccc4)sc3nc2c1 | 11.3%
60 | N#CC1=C(N)NC(SCC(=O)c2ccc(Br)cc2)=C(C#N)C12CCCCC2 | 1.36%
61 | CCc1nnc(NC(=O)CSc2nnc3nc(C)cc(C)n23)s1 | 10.8%
62 | Cc1ccc(-c2ccc(CCC(=O)O)n2-c2cccc(C(=O)O)c2)cc1 | 13.8%
63 | Cc1nccn1CC(=O)N/N=C/c1cc(Br)cs1 | 6.58%
64 | Cc1cccc(N=Nc2ccc(O)c3ncccc23)c1 | -8.51%
65 | Cc1nc(NC(=O)CSc2nnnn2C)sc1C | 14.3%
66 | Cc1ccc(NC(=O)Cn2cnc3c(cnn3C(C)(C)C)c2=O)cc1 | 7.16%
67 | COc1ccc2nc(NC(=S)NC(=O)c3ccco3)sc2c1 | 25.2%
68 | CCOc1ccc(NC(=O)CN(C)CC(=O)NC(C)c2ccccc2)cc1OCC (centres unmarked) | 6.58%
69 | COc1ccc(/C=N/NC(=O)CNC(=O)c2ccc3c(c2)OCCO3)cc1OC | 6.17%

Row | Structure (SMILES) | hERG current change (%, negative = inhibition) at 10uM
70 | Cn1c(=O)c(=O)n(C)c2cc(S(=O)(=O)N3CCC(N4CCCCC4)CC3)ccc21 | -3.6%
71 | CCCS(=O)(=O)c1nc(S(=O)(=O)c2ccc(C)cc2)c(NCCCN2CCCC2=O)s1 | -21.2%
72 | CCCCc1ccc(NC(=O)N[C@H](C(=O)O)C(C)C)cc1 | 8.46%
73 | CC[C@H](C)[C@H](NC(N)=O)C(=O)NCCc1ccc(Cl)cc1 | 8.3%
74 | COc1ccc(/C=C2\SC(=O)N(CC(=O)Nc3ccc(O)cc3)C2=O)cc1OC | 19.8%
75 | Cc1ccc(C2/C(=C(/O)c3ccccc3)C(=O)C(=O)N2CCN2CCOCC2)o1 (centres unmarked) | -2.22%
76 | CN(C)c1nc(NCc2ccccc2)nc(N/N=C/c2ccc3c(c2)OCO3)n1 | 8.34%
77 | O=C(c1cccc(Cl)c1)N1CCN(c2ccc(N3CCOCC3)nn2)CC1 | -34.8%
78 | CC1CC(C(F)F)n2nc(C(=O)O)cc2N1 (centres unmarked) | -5.09%
79 | COc1ccccc1N(C(=O)c1ccncc1)c1nc(-c2ccc([N+](=O)[O-])cc2)cs1 | -4.73%
80 | C(=N\N1CCN(Cc2cccc3ccccc23)CC1)/c1ccco1 | -25.5%
81 | Cn1c(=O)c2c(ncn2CC(=O)NCc2cccnc2)n(C)c1=O | 5.06%
82 | CS(=O)(=O)N1CCc2cc(S(=O)(=O)N3CCCCC3)ccc21 | -14.8%
83 | O=C(NNC(=O)c1cccnc1)NC12CC3CC(CC(C3)C1)C2 | -2.41%
84 | O=P(C(=NCCO)NO)(N1CCOCC1)N1CCOCC1 | 9.46%
85 | CN(C)C(=O)c1cccn(Cc2ccc(C(F)(F)F)cc2)c1=O | 6.32%
86 | CCOc1ccc(NC(=O)C2CC(=O)N(c3ccc4c(c3)OCCO4)C2)cc1OCC (centres unmarked) | -7.99%
87 | CCCCOC(=O)CNc1nnc(SCC(=O)OCC)[nH]c1=O | 5.93%
88 | Cc1ccccc1CSc1nnc(-c2ccco2)n1Cc1ccco1 | -75.4%
89 | COc1ccccc1OCC(=O)NNC(=O)c1cnccn1 | 2.77%
